According to the BET-seq Pho4 binding data (Le et al. 2018):
The list shows a part of the results. Values were computed here from the reads of four pooled replicates and scatter widely.

These sequences were tested against T1, Pho4 (S. cerevisiae) (UniProt P07270) (assay: relative binding free energy (BET-seq); higher = weaker binding). Conditions: reference: library average.
T1 sequence: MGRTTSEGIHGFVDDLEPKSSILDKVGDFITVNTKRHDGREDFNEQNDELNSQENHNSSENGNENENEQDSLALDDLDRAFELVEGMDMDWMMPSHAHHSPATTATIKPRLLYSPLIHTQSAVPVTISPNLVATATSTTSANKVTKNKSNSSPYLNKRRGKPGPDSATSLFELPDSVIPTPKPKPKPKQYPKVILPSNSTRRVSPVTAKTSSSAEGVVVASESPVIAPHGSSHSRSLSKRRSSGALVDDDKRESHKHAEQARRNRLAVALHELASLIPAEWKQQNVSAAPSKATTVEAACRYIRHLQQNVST

| Sequence | relative binding free energy |
| --- | --- |
| AGCGGCACGTGTGGGT | 0.04 kcal/mol |
| GGATGCACGTGTGGGT | 0.05 kcal/mol |
| GTTACCACGTGGTGGG | 0.01 kcal/mol |
| CGCGTCACGTGGGGTG | -0.2 kcal/mol |
| TTCGGCACGTGGGCTT | -0.2 kcal/mol |
| ACGGGCACGTGTGTTA | -0.08 kcal/mol |
| TCCAGCACGTGGGGGA | -0.11 kcal/mol |
| TCGAGCACGTGGTGGA | -0.16 kcal/mol |
| AGATTCACGTGGGATG | 0.27 kcal/mol |
| TAGAGCACGTGTGGAG | -0.16 kcal/mol |
| TGGGTCACGTGAAGGG | 0.3 kcal/mol |
| GTTGACACGTGTGATG | 0.12 kcal/mol |
| TGGAACACGTGGGTCA | -0.16 kcal/mol |
| GATGGCACGTGTTGGT | 0.02 kcal/mol |
| TTAAGCACGTGGGGCA | -0.27 kcal/mol |
| AATTGCACGTGCGAGG | 0.11 kcal/mol |
| GGGCCCACGTGCTGGG | -0.15 kcal/mol |
| GAGGTCACGTGGTAGA | 0.14 kcal/mol |
| CGATTCACGTGCGTGG | 0.18 kcal/mol |
| TAAGGCACGTGTGATC | 0.09 kcal/mol |
| ATATTCACGTGGCAGG | 0.19 kcal/mol |
| TTTATCACGTGTAGTA | 0.2 kcal/mol |
| CAGGTCACGTGGAGTG | 0.03 kcal/mol |
| GAGTGCACGTGGAAAG | 0.24 kcal/mol |
| TATATCACGTGAGGGG | 0.42 kcal/mol |

| Sequence | relative binding free energy |
| --- | --- |
| TTAAGCACGTGTATGA | -0.13 kcal/mol |
| TCTATCACGTGTTTTT | 0.25 kcal/mol |
| GGGGCCACGTGTGATT | 0.04 kcal/mol |
| AGAAACACGTGGGGTA | -0.2 kcal/mol |
| AGTAGCACGTGTAGGC | -0.09 kcal/mol |
| GGTGGCACGTGTGGTC | -0.01 kcal/mol |
| GGAATCACGTGTGCGT | 0.22 kcal/mol |
| ATAAGCACGTGTTTGG | -0.04 kcal/mol |
| TAAGTCACGTGAAAGG | 0.37 kcal/mol |
| CGCTTCACGTGTGTTT | 0.13 kcal/mol |
| TTTGGCACGTGAGCAT | 0.16 kcal/mol |
| ATTCTCACGTGGGCGG | 0.14 kcal/mol |
| GGAGACACGTGAAGTG | 0.34 kcal/mol |
| TTGTTCACGTGTTGGG | 0.24 kcal/mol |
| TTTGTCACGTGCAATT | 0.13 kcal/mol |
| AGGATCACGTGGCAGT | 0.13 kcal/mol |
| TATGGCACGTGGAAGC | -0.09 kcal/mol |
| GGTCGCACGTGGCCGG | -0.1 kcal/mol |
| TTGTGCACGTGTAGGC | 0.03 kcal/mol |
| GGCTGCACGTGGAGCT | 0.21 kcal/mol |
| GTGTGCACGTGGAGTT | 0.06 kcal/mol |
| GTAATCACGTGCGTGT | 0.08 kcal/mol |
| TGAGCCACGTGGTGTC | -0.06 kcal/mol |
| ACTTGCACGTGTTGGG | -0.02 kcal/mol |
| TTTATCACGTGACGTT | 0.25 kcal/mol |

| Sequence | relative binding free energy |
| --- | --- |
| ATCAGCACGTGGTGGG | -0.12 kcal/mol |
| GTTTGCACGTGAGGCA | 0.23 kcal/mol |
| CGGATCACGTGGCGGG | 0.13 kcal/mol |
| AGGATCACGTGATGCG | 0.17 kcal/mol |
| GTGGGCACGTGTTCTG | -0.12 kcal/mol |
| GTAAACACGTGGTTGG | 0.01 kcal/mol |
| ACGGACACGTGGGTGG | -0.04 kcal/mol |
| GTGTACACGTGCGATT | 0.04 kcal/mol |
| ATTGTCACGTGAGGTT | 0.29 kcal/mol |
| TGGTACACGTGTGGAC | 0.03 kcal/mol |
| TGCGGCACGTGTTGTC | -0.02 kcal/mol |
| TTAGTCACGTGCTTGG | -0.03 kcal/mol |
| AACGGCACGTGGTGGG | -0.21 kcal/mol |
| TTTATCACGTGATTTC | 0.28 kcal/mol |
| GCCGGCACGTGATGGT | 0.24 kcal/mol |
| CTTAACACGTGATTTA | 0.26 kcal/mol |
| TAGTGCACGTGGTGAG | 0 kcal/mol |
| TCGTGCACGTGTGGAG | 0.05 kcal/mol |
| GGGCCCACGTGATGGG | 0.05 kcal/mol |
| TGACGCACGTGGTTGT | -0.12 kcal/mol |
| TATCGCACGTGGGGTC | -0.21 kcal/mol |
| TGTACCACGTGTTAGT | -0.01 kcal/mol |
| CGATACACGTGGAGGG | -0.06 kcal/mol |
| GTGTGCACGTGCAGAT | 0.13 kcal/mol |
| TGGGACACGTGGTGGC | 0.06 kcal/mol |

| Sequence | relative binding free energy |
| --- | --- |
| GGTAGCACGTGTGTTC | 0.02 kcal/mol |
| GGTCGCACGTGCGAGT | -0.15 kcal/mol |
| TGTTGCACGTGTAAGG | 0.13 kcal/mol |
| TTGGGCACGTGCAGTC | -0.05 kcal/mol |
| TGATTCACGTGCAGTT | 0.35 kcal/mol |
| AAGAACACGTGAGTGG | 0.39 kcal/mol |
| GGGTACACGTGCTGGT | 0.1 kcal/mol |
| GTTGTCACGTGAGCTT | 0.26 kcal/mol |
| GTTACCACGTGTAGTG | 0.02 kcal/mol |
| TATATCACGTGTCGGA | 0.34 kcal/mol |
| TGTAACACGTGGTATG | -0.13 kcal/mol |
| CGGTGCACGTGGGGGA | -0.19 kcal/mol |
| GTAGGCACGTGAGTGA | 0.07 kcal/mol |
| AGGTACACGTGAGTAA | 0.26 kcal/mol |
| TAACGCACGTGGGGTC | -0.1 kcal/mol |
| GGTCGCACGTGTAATG | 0.1 kcal/mol |
| GGAGGCACGTGTGGGC | 0.03 kcal/mol |
| GGTCTCACGTGAGGGC | 0.32 kcal/mol |
| CGTGTCACGTGACTTT | 0.15 kcal/mol |
| TGATGCACGTGATGCT | -0.02 kcal/mol |
| GAGATCACGTGTGTGG | 0.32 kcal/mol |
| GGTATCACGTGTGTGT | 0.26 kcal/mol |
| TTGCACACGTGGGCGG | 0.01 kcal/mol |
| GGAGTCACGTGAGGGG | 0.33 kcal/mol |
| GATGGCACGTGCATGT | -0.12 kcal/mol |

| Sequence | relative binding free energy |
| --- | --- |
| GTACTCACGTGTTATA | 0.28 kcal/mol |
| TTTCTCACGTGCTTTG | 0.18 kcal/mol |
| TTGGGCACGTGGAGGC | -0.03 kcal/mol |
| TCTTGCACGTGTTGGC | 0.12 kcal/mol |
| TATAGCACGTGGGAAA | 0.05 kcal/mol |
| GTGGGCACGTGCGTAG | -0.17 kcal/mol |
| AATAGCACGTGGATGG | 0 kcal/mol |
| AGTGTCACGTGGGAAT | -0.02 kcal/mol |
| CGCGTCACGTGGATGT | 0.13 kcal/mol |
| AAGGTCACGTGCGGGA | 0.02 kcal/mol |
| GTTGACACGTGTAAGT | 0.21 kcal/mol |
| AGGTCCACGTGGTGCT | 0.05 kcal/mol |
| TTAATCACGTGGTGTT | -0.05 kcal/mol |
| GATGTCACGTGGGCTT | 0.17 kcal/mol |
| TTCGTCACGTGTTCGT | -0.01 kcal/mol |
| TTTTGCACGTGTCCTT | -0.06 kcal/mol |
| TTGTTCACGTGGGTAT | 0.19 kcal/mol |
| GGAGTCACGTGATAGT | 0.17 kcal/mol |
| CGAGGCACGTGTGGGA | -0.08 kcal/mol |
| GATGACACGTGATTTT | 0.11 kcal/mol |
| CGAGTCACGTGGAAGG | 0.21 kcal/mol |
| ATTTTCACGTGCAGTA | 0.18 kcal/mol |
| GGAGTCACGTGTCGGT | 0.12 kcal/mol |
| TTGTACACGTGTCAGT | -0.02 kcal/mol |
| TGAGTCACGTGGAGGT | 0.07 kcal/mol |

| Sequence | relative binding free energy |
| --- | --- |
| GGCGGCACGTGGGCGC | -0.33 kcal/mol |
| TTGACCACGTGGATGG | 0.04 kcal/mol |
| GTAATCACGTGGAGTA | 0.23 kcal/mol |
| GTGGCCACGTGGGGGT | -0.17 kcal/mol |
| TGTATCACGTGCGGGC | -0.03 kcal/mol |
| AGGGGCACGTGCTCGG | -0.21 kcal/mol |
| CGTTTCACGTGGAGAG | 0.33 kcal/mol |
| GGGAGCACGTGTTAGT | -0.06 kcal/mol |
| GGTAGCACGTGTGAAA | 0.15 kcal/mol |
| TTGCTCACGTGGTTAT | 0.1 kcal/mol |
| GGAGGCACGTGGTGTG | -0.15 kcal/mol |
| ATGAACACGTGGTTGT | -0.11 kcal/mol |
| TCGTACACGTGGGTAG | -0.06 kcal/mol |
| TGTCACACGTGGGGGC | -0.1 kcal/mol |
| AAAGACACGTGATGTT | 0.14 kcal/mol |
| GGTTCCACGTGGTTGT | 0.06 kcal/mol |
| TGAGTCACGTGTATTG | 0.03 kcal/mol |
| TATAACACGTGTTTGA | -0.18 kcal/mol |
| AGTTTCACGTGAGGAT | 0.37 kcal/mol |
| TATTGCACGTGTCGAT | -0.06 kcal/mol |
| CTTGGCACGTGAGGGG | 0.08 kcal/mol |
